This is one part of the list. Further columns of the screen follow, without active or inactive calls.
Key:
Test in all cases: Primary Screen for Target Class Profiling of Small Molecule Inhibitors of Methyltransferases
[1] = biological target: Glycine N-methyltransferase (Homo sapiens) (UniProt Q14749); conditions: purified enzyme, MTase-Glo SAH luminescence; measured here: GNMT inhibition; at 40 µM; stronger effect = lower value
Summary of the method: (§1)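 Each enzyme was reacted with SAM and its substrate, with compounds tested once at 40 uM; SAH formed was read by MTase-Glo luminescence.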

[2] = biological target: Guanidinoacetate N-methyltransferase (Homo sapiens) (UniProt Q14353); conditions: purified enzyme, MTase-Glo SAH luminescence; measured here: GAMT inhibition; at 40 µM; stronger effect = lower value
Summary of the method: as §1

[3] = biological target: Histamine N-methyltransferase (Homo sapiens) (UniProt P50135); conditions: purified enzyme, MTase-Glo SAH luminescence; measured here: HNMT inhibition; at 40 µM; stronger effect = lower value
Summary of the method: as §1

[4] = biological target: Nicotinamide N-methyltransferase (Homo sapiens) (UniProt P40261); conditions: purified enzyme, MTase-Glo SAH luminescence; measured here: NNMT inhibition; at 40 µM; stronger effect = lower value
Summary of the method: as §1

[5] = biological target: Phenylethanolamine N-methyltransferase (Homo sapiens) (UniProt P11086); conditions: purified enzyme, MTase-Glo SAH luminescence; measured here: PNMT inhibition; at 40 µM; stronger effect = lower value
Summary of the method: as §1
% is set by controls: 0 for no effect and ±100 for the full control effect.

Compound | activity change, negative = inhibition [1] [%] | activity change, negative = inhibition [2] [%] | activity change, negative = inhibition [3] [%] | activity change, negative = inhibition [4] [%] | activity change, negative = inhibition [5] [%]
O=C(Nc1cccc(Cl)c1)N1CC(n2cc(COc3ccccc3)nn2)C1 | -8 | -5.92 | -5.03 | -12.6 | -0.69
C#Cc1cccc(Nc2ncnc3cc(OCCOC)c(OCCOC)cc23)c1 | -30.3 | -24.3 | -31.1 | -19.7 | -22.4
CC1(C(=O)NC2CCCCCC2)Cn2c(cc3occc32)C(=O)N1Cc1ccccn1 (stereo unspecified) | -3.94 | 2.41 | -1.55 | -4.4 | -4.33
C[C@@H](NS(=O)(=O)c1ccc(Cl)cc1)c1onc(-c2ccc(F)cc2)c1C(=O)O | -4.52 | -0.286 | -1.47 | -3.73 | -0.421
O=C(Nc1ccc(F)cc1)c1ccc2cc[nH]c2n1 | -7.91 | -5.1 | -4.13 | -33.8 | -10.6
COc1ccc(Cn2ccc3ccc(C(=O)NO)cc32)cc1 | -4.89 | -4.98 | 9.39 | -13.8 | 0.47
Cc1ccccc1N1CCN(S(=O)(=O)C[C@]23CCC(CC2NC(=O)[C@@H](N)CCS(C)(=O)=O)C3(C)C)CC1 (stereo partly specified) | – | 9.94 | – | -0.027 | 7.95
CC1(C(=O)NC2CCCC2)Cn2c(cc3ccccc32)C(=O)N1C1CCCCCC1 (stereo unspecified) | 5.53 | 0 | 4.52 | 4.93 | -1.21
C=CC(C)(O)C(O)CC1C(C)(O)C(O)C(O)C2C(C)(C)CCCC21C (stereo unspecified) | -1.63 | -6.22 | 2.79 | -13.3 | -1.12
COc1ccc(NC(=O)N2C[C@@H]3C[C@H](C2)c2ccc(NC(=O)c4ccccn4)c(=O)n2C3)cc1 | -8.97 | -10.4 | -5.12 | -21.6 | -12.4
COC(=O)c1cc2n(n1)CC(C)(C(=O)NC1CCCCCC1)N(Cc1ccc(OC)cc1OC)C2=O (stereo unspecified) | 2.04 | 0 | -5.78 | -23.1 | 2.24
CN(C)c1ccc(CCc2nc(C3CCOC3)no2)cc1 (stereo unspecified) | -9.28 | -5.75 | -2.4 | -5.77 | 0.13
Nc1ccc(-c2ccnc(NCCCNC(=O)c3c(Cl)cccc3Cl)n2)cc1 | – | -11 | – | -33.1 | -13.2
CC1CCCCC1NC(=O)C1(C)Cn2c(nc3ccccc32)C(=O)N1Cc1cccc(Cl)c1 (stereo unspecified) | 1.28 | 4.21 | 5.31 | 3.66 | 0.291
O=C(CCn1ccc2cc(S(=O)(=O)N3CCCCC3)ccc21)NCc1ccc(Cl)cc1 | 2.27 | 0 | 5.78 | -1.53 | 1.54
O=C(c1ccc(C(F)(F)F)cc1)N1CCC2(CC1)CNc1ccccc1[S+](=O)([O-])N2 | -3.39 | -3.54 | -0.98 | -4.2 | -2.87
CC(=O)OC1C(C)C2C(OC3OC(CO)C(O)C(O)C3O)OC=C(C(=O)O)C2C1OC(=O)c1ccccc1 (stereo unspecified) | 0 | 2.85 | 2.7 | -11 | 4.71
Cc1cccc(CSc2nnc3n(CCCOC(C)C)c(=O)c4cc(Cl)ccc4n23)c1 | -0.886 | 1.67 | 5.64 | -6.68 | 3.95
CCOc1ccc(-c2cc3n(n2)CC(C)(C(=O)NC2CCCCC2)N(CCC(C)C)C3=O)cc1 (stereo unspecified) | 3.74 | 0 | 7.28 | 3.57 | 2.33
CC(C)CCN1C[C@@H]2C(=O)N(CCc3ccccc3)C(=O)[C@@H]2C1 | -5.15 | -4.56 | -1.43 | -8.97 | -1.72

Compound | activity change, negative = inhibition [1] [%] | activity change, negative = inhibition [2] [%] | activity change, negative = inhibition [3] [%] | activity change, negative = inhibition [4] [%] | activity change, negative = inhibition [5] [%]
Cc1cc(C)cc(NC(=O)CCc2nnc3n(Cc4ccccc4Cl)c(=O)c4ccccc4n23)c1 | 0.4 | 0 | 6.31 | -5.41 | -8.37
Cc1nc2scc(CC(=O)N3CCOCC3)n2c(=O)c1-c1cc(C)n(-c2ccc(F)cc2)n1 | -19.9 | -17 | -4.45 | -15.8 | -11.6
O=C(NCc1ccc(F)cc1)[C@@H]1C[C@H](c2ccc(F)cc2)N([S+](=O)([O-])C2CC2)C1 | -6.49 | -2.56 | -0.03 | -12 | -6.03
O=C(c1ccc(F)c(F)c1Nc1ccc(I)cc1F)N1CC(O)(C2CCCCN2)C1 (stereo unspecified) | 0.431 | 12.9 | 7.41 | -12.6 | 7.78
Fc1ccc(CN(C2=NCCN2)c2c(Cl)cccc2Cl)cc1 | -8.25 | 2.81 | -42.9 | -24.4 | 7.08
CC(C)c1noc([C@@H]2C[C@H](NS(=O)(=O)c3ccccc3)CN2C)n1 | -3.71 | -7.44 | -3.27 | -13.9 | -9.95
CC(CN1C(=O)c2nc3ccccc3n2CC1(C)C(=O)NC1CCCC(C)C1C)c1ccccc1 (stereo unspecified) | 1.84 | 0.332 | -6.02 | -1.37 | -1.15
CC(C)OCCCn1c(=O)c2cc(Cl)ccc2n2c(SCc3ccccc3F)nnc12 | -7.95 | 3.95 | -2.06 | -15.8 | 0.545
O=C(C1CC1)N1CCc2cc(Br)c(S(=O)(=O)NCCN3CCN(c4ccccc4F)CC3)cc21 | -9.54 | 5.09 | -2.95 | -8.71 | -3.44
COC(=O)c1ncn2c1C(=O)N(CCc1ccc(Cl)cc1)C(C)(C(=O)NC1CCCCCC1)C2 (stereo unspecified) | -1.14 | 0 | 5.42 | 6.41 | 2.38
O=C(Cn1c(=O)oc2cc(S(=O)(=O)NCc3ccccc3)ccc21)N1CCOCC1 | -4.6 | 5.02 | -0.28 | 10.8 | -4.57
CCc1c2c(nc3ccc(O)cc13)-c1cc3c(c(=O)n1C2)COC(=O)[C@]3(O)CC | -4.12 | -7.68 | -7.93 | -16.8 | -12.5
COc1cccc(CCC(=O)N2CCC(n3cc(-c4nc(-c5ccccc5)no4)nn3)C2)c1 (stereo unspecified) | -4.72 | -1.54 | 0.06 | -7.8 | -0.661
CCc1cc2c(cc1N1CCC(N3CCOCC3)CC1)C(C)(C)c1[nH]c3cc(C#N)ccc3c1C2=O | -5.82 | 0.027 | 1.6 | -11.2 | 2.4
CC(=O)N1CCN(C(=O)c2cc(-c3ccc(F)cc3)c3nncn3n2)CC1 | -2.44 | -2.91 | 0.461 | -12.3 | 4.69
O=C1NC2(CN([S+](=O)([O-])c3ccsc3)C2)Oc2ccccc21 | -10.3 | -14.4 | -8.12 | -29.9 | -5.27
COc1ccccc1N1CCN(C(=O)CCc2nnc3n(Cc4ccc(C)cc4)c(=O)c4ccccc4n23)CC1 | -7.89 | 1.06 | 6.86 | 8.04 | 2.83
CC(=O)N1CCCC1c1nnc2n1CCNC2 (stereo unspecified) | -7.74 | -8.09 | -8.65 | -8.57 | -17.3
CCc1cccc(N2C(=O)c3cc(-c4ccco4)nn3CC2(C)C(=O)NC2CCCCCC2)c1 (stereo unspecified) | -5.26 | 1.74 | -2.65 | -8.1 | -3.62

Reference: PubChem BioAssay AID1745853 (National Center for Advancing Translational Sciences (NCATS), 2022)
